# According to publication PMC6212790:
# The list shows a part of the results. At the low end of the ranking, values are background and their order means little.
# Molecular target: T1, GST-Rok-C97-191 (UniProt O34857)
# T1 sequence: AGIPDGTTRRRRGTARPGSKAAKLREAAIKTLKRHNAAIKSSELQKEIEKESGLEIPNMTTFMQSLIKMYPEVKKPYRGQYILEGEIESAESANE
# Assay: protein binding microarray;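 note: rank score from −0.5 (least bound) to 0.5 (best bound)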
# Conditions: Rok is a gene silencer of Bacillus subtilis; high values mean tight binding; most listed sequences are background and not binding sites; double strand, one strand shown
row,Sequence,binding signal
1,GGACATCA,-0.269 E-score
2,AATTTGAG,-0.0738 E-score
3,CGTCCTGC,-0.233 E-score
4,CCACATTA,0.153 E-score
5,GCAGCCCC,-0.358 E-score
6,GCCGATAA,-0.00219 E-score
7,ACACCGCC,-0.226 E-score
8,GTATCGTA,0.268 E-score
9,GCAGGATA,-0.0502 E-score
10,CCAAGGAA,-0.261 E-score
11,CAGGTATG,0.245 E-score
12,ACCCGATA,0.234 E-score
13,AGGTCGAC,0.159 E-score
14,CGCGGTAA,-0.116 E-score
15,ATCCGGGC,-0.21 E-score
16,AATGACCA,-0.0283 E-score
17,ACATTCGC,0.0672 E-score
18,AACAGCTC,0.087 E-score
19,CGAGACAC,-0.109 E-score
20,CGGTGCCC,-0.343 E-score
21,GTATTAGA,0.171 E-score
22,ATCTGGCG,-0.263 E-score
23,CGGGCGAG,-0.181 E-score
24,CGCAAGAA,0.0789 E-score

row,Sequence,binding signal
1,GGCCCTAC,-0.257 E-score
2,CTAATCCC,0.0176 E-score
3,CCGCATGC,-0.158 E-score
4,ACTCTTAT,-0.0684 E-score
5,ACTAAAGC,0.0152 E-score
6,CAGATATG,0.0709 E-score
7,CCCTAACC,-0.374 E-score
8,GGACTGGA,-0.0768 E-score
9,AGCGAGCC,-0.0824 E-score
10,CGGAATAG,0.174 E-score
11,CTGCCACC,-0.301 E-score
12,TGCAAAAA,0.087 E-score
13,ACGGACAG,-0.198 E-score
14,GACGGGCA,-0.132 E-score
15,CCACTCCA,-0.233 E-score
16,ATTAGCTC,0.228 E-score
17,CCTGGGCG,-0.328 E-score
18,ACCGGTTG,-0.0424 E-score
19,TGCAACCA,0.021 E-score
20,AGAGAGCC,-0.129 E-score
21,GCTCCCTA,-0.23 E-score
22,AGAGGCAA,-0.195 E-score
23,CAACGGAG,-0.219 E-score
24,TGATATAA,0.309 E-score

row,Sequence,binding signal
1,ATGAATTG,0.0684 E-score
2,ATTAGTTC,0.0713 E-score
3,TCGGGTAA,0.0879 E-score
4,CGTTTGGC,-0.0792 E-score
5,GTTTCTAA,-0.0431 E-score
6,ATACCCTA,0.103 E-score
7,GAGACCTC,-0.221 E-score
8,CTGCCATA,-0.135 E-score
9,GCAGTAGC,-0.0623 E-score
10,GGTCCGTA,-0.112 E-score
11,AAAGCTGC,0.152 E-score
12,ATGGTGAG,-0.00212 E-score
13,ACAGTCGG,0.0333 E-score
14,CCAATCTC,0.219 E-score
15,ATGTCTTC,-0.176 E-score
16,CTCTGAGC,-0.262 E-score
17,GAAAGACC,-0.129 E-score
18,CCCGAACA,-0.192 E-score
19,AAGCTAAA,0.0289 E-score
20,CACCAGCG,-0.228 E-score
21,ACTATGAC,0.0601 E-score
22,AAGGAATA,-0.0463 E-score
23,GAGACGCC,-0.287 E-score
24,ATATCAAT,0.264 E-score

row,Sequence,binding signal
1,ATATAACA,0.221 E-score
2,GAACTGAC,-0.0807 E-score
3,CAATACTG,-0.0233 E-score
4,AGCCAAAC,0.155 E-score
5,CTGAGACA,-0.182 E-score
6,ATAGGTAC,0.257 E-score
7,CCGCAACG,-0.0543 E-score
8,ACAGCGTC,-0.208 E-score
9,CACAAACG,0.00653 E-score
10,ATCCCGCC,-0.0295 E-score
11,AAGTAATG,0.0881 E-score
12,AGGGGGGG,-0.315 E-score
13,AGTCCCAC,-0.00639 E-score
14,CAACCCCC,-0.324 E-score
15,AACAGTGC,-0.0869 E-score
16,CACTGTGG,-0.0766 E-score
17,CTATCTAA,0.282 E-score
18,ACGAGAGA,0.022 E-score
19,AGGGCTAG,-0.212 E-score
20,ACCGCGAT,-0.0202 E-score
21,ATCTAGCA,0.309 E-score
22,CAGGTACG,-0.0152 E-score
